Test results taken from the supplement of paper PMC3334620.
Over roughly 33,000 sequences, “E-score (-0.5 to 0.5)” has its median near -0.043; the highest 2% begin near 0.37. Some of the results follow.

Biological target: T1, Upc2 (UniProt Q12151)
T1 sequence: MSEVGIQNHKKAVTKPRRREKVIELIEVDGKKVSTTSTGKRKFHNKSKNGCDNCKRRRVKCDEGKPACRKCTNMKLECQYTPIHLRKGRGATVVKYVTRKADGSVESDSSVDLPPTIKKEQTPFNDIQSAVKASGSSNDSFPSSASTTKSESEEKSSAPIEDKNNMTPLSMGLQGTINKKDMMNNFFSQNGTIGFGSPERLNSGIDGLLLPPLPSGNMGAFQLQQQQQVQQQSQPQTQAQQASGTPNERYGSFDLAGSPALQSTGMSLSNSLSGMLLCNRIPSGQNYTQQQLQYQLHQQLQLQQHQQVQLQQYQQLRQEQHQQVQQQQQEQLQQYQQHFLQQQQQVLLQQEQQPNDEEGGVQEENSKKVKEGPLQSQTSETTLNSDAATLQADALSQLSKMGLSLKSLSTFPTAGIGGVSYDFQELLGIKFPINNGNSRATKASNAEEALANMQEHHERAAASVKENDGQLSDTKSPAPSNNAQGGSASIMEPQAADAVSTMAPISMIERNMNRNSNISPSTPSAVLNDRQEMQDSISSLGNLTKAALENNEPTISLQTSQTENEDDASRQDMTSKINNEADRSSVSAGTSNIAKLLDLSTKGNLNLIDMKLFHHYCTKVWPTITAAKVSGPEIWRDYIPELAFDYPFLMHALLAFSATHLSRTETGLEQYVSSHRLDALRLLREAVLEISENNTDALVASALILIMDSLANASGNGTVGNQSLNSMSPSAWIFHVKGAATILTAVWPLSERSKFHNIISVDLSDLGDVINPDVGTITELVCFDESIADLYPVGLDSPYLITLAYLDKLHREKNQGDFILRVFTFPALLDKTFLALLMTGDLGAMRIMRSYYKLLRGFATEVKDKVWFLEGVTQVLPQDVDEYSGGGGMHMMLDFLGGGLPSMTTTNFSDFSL
Assay: PBM E-score (8-mer binding enrichment) (E-score (-0.5 to 0.5)); higher = stronger / more preferred TF binding; most listed sequences are background and not binding sites
Conditions: protein concentration: 200 nM; construct: GST-full length
Outline: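 The E-score, a modified Wilcoxon-Mann-Whitney statistic, was computed by the Universal PBM Analysis Suite for every ungapped eight-base word pooled with its reverse complement. Scans behind it were normalised with masliner after bound GST-tagged yeast transcription factors were detected with fluorescent anti-GST. The proteins, at about 100-200 nM, had been applied to universal all-10-mer Agilent arrays made double-stranded by primer extension.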

Compared with ACTCACCA, ACGCTGAG is higher in “PBM E-score” value: -0.181 for the first, 0.0209 for the second.

Compared with CTAAGAGC, AACCTCGA is higher in “PBM E-score” value: 0.0275 for the first, 0.0605 for the second.

Compared with GTGTTCTA, ACGGCGTA is higher in “PBM E-score” value: 0.162 for the first, 0.261 for the second.

Compared with ATTTGAGA, AAGGAACC is higher in “PBM E-score” value: 0.0579 for the first, 0.235 for the second.

First: AAAAGTAT
Second: AATCAACC
The “PBM E-score” value of the first is higher: 0.0531 for the first, -0.0403 for the second.

Going from AGAAGTGC to AGCAAGCT, the “PBM E-score” value falls from -0.0394 to -0.253.

Compared with CGATCGCA, AGGTCCGC is lower in “PBM E-score” value: 0.212 for the first, -0.267 for the second.

Compared with AAAGCTAA, GGACCTGA is lower in “PBM E-score” value: -0.0248 for the first, -0.131 for the second.

Compared with ATGCAGGG, CCACTCGC is higher in “PBM E-score” value: -0.271 for the first, 0.0979 for the second.

Compared with CAGTCGGG, TACGCACA is higher in “PBM E-score” value: -0.0126 for the first, 0.245 for the second.

First: CGCTGGGC
Second: ACAAATAA
The “PBM E-score” value of the first is lower: 0.0229 for the first, 0.126 for the second.

Going from TATTCGGA to GAACCGGA, the “PBM E-score” value falls from 0.124 to -0.00053.

First: CGACCGAC
Second: TGGGCGAA
The “PBM E-score” value of the first is higher: 0.0957 for the first, -0.0874 for the second.

First: AGGATGCA
Second: ATCCGTTA
The “PBM E-score” value of the first is lower: -0.0759 for the first, 0.199 for the second.

Going from AGTAATCA to CAAAGACA, the “PBM E-score” value rises from -0.141 to -0.126.

First: ACGTCCTA
Second: GAACGCAC
The “PBM E-score” value of the first is lower: -0.0897 for the first, 0.0782 for the second.

Going from GCTATCAC to GTACGCGA, the “PBM E-score” value rises from 0.0212 to 0.347.

Going from TGGCCACA to ACAAATTG, the “PBM E-score” value rises from -0.218 to 0.0673.

Going from ATATCCGG to CCTGGTTA, the “PBM E-score” value falls from -0.0439 to -0.225.

First: TCTCAGCA
Second: ATCCACTC
The “PBM E-score” value of the first is lower: -0.137 for the first, -0.128 for the second.

Compared with TCGAGCCA, ACCTTTTG is higher in “PBM E-score” value: -0.0555 for the first, -0.0248 for the second.

First: CTCCAGTC
Second: AGTGAGGG
The “PBM E-score” value of the first is higher: -0.153 for the first, -0.247 for the second.

Compared with CGGAAACG, ACGGCATA is lower in “PBM E-score” value: 0.277 for the first, 0.257 for the second.

First: AAGGACTC
Second: AAACGTAG
The “PBM E-score” value of the first is lower: -0.138 for the first, 0.204 for the second.

First: AACAGTTG
Second: ATTAGCGC
The “PBM E-score” value of the first is lower: -0.156 for the first, 0.133 for the second.

First: ACCCGCCT
Second: CAAACATA
The “PBM E-score” value of the first is higher: 0.109 for the first, -0.154 for the second.

Compared with ATGTTCGG, ACGTGATC is higher in “PBM E-score” value: -0.0847 for the first, 0.0566 for the second.

Going from CTATACTA to AGACCAAA, the “PBM E-score” value falls from 0.192 to -0.169.

Going from GCAATTAA to AAGGAGAG, the “PBM E-score” value falls from -0.0261 to -0.304.

Compared with AATCTCGC, AAGCACAA is lower in “PBM E-score” value: 0.197 for the first, -0.107 for the second.

First: CAGCATTA
Second: CTAGCCAG
The “PBM E-score” value of the first is higher: 0.0313 for the first, -0.267 for the second.

Compared with GGCTATAC, AACTTTTG is lower in “PBM E-score” value: 0.299 for the first, -0.0929 for the second.

First: ACCTAACT
Second: GAATCCGA
The “PBM E-score” value of the first is lower: -0.0287 for the first, 0.128 for the second.

Compared with GATGTGGA, AGGTGAAC is higher in “PBM E-score” value: -0.074 for the first, 0.0761 for the second.

Compared with CTTCGTAC, GACCCCCA is lower in “PBM E-score” value: 0.458 for the first, -0.217 for the second.

First: CCTCAACG
Second: ATCATTCC
The “PBM E-score” value of the first is higher: 0.0862 for the first, -0.0223 for the second.

Compared with CTACAAAC, TAGAGTCA is lower in “PBM E-score” value: 0.0709 for the first, -0.305 for the second.

Going from ATGCTCCC to GTTTTCCA, the “PBM E-score” value rises from -0.12 to 0.0934.

Going from ATCGGACG to GGTGAAGA, the “PBM E-score” value rises from -0.124 to -0.00573.

First: ACTAGCGG
Second: CAAGGAAA
The “PBM E-score” value of the first is higher: -0.175 for the first, -0.189 for the second.

First: ATACAGCA
Second: TACTTGGA
The “PBM E-score” value of the first is higher: 0.08 for the first, 0.0155 for the second.

First: GTGACGGA
Second: CAGCCGGG
The “PBM E-score” value of the first is higher: -0.222 for the first, -0.327 for the second.

Compared with TATGTTAA, GGCCCTGA is lower in “PBM E-score” value: 0.0325 for the first, -0.0842 for the second.

First: CGCGACTA
Second: AAAAGACT
The “PBM E-score” value of the first is higher: 0.138 for the first, 0.0632 for the second.

First: AATGTCAT
Second: GACGAGAC
The “PBM E-score” value of the first is lower: 0.00939 for the first, 0.0394 for the second.

Compared with CGCTCTAA, TAGGGCCA is lower in “PBM E-score” value: 0.122 for the first, -0.191 for the second.

Compared with AAAAGTTG, TAGGCTGA is lower in “PBM E-score” value: -0.0427 for the first, -0.0698 for the second.

Compared with CGCCAATC, ACCGTCAG is lower in “PBM E-score” value: 0.0223 for the first, -0.0757 for the second.

Compared with CAAACTCA, CGCAGGAC is lower in “PBM E-score” value: -0.126 for the first, -0.187 for the second.

First: CATATATG
Second: CGAGGGGC
The “PBM E-score” value of the first is lower: -0.16 for the first, 0.105 for the second.

Going from CCCACTCG to ATTAGTTC, the “PBM E-score” value falls from 0.169 to -0.026.

First: ACCTTTCC
Second: CCGAACAA
The “PBM E-score” value of the first is lower: -0.186 for the first, 0.0223 for the second.

Going from AAGGTTGA to CTCAGCAG, the “PBM E-score” value falls from -0.129 to -0.136.

First: CGTTCACA
Second: CACCAGGA
The “PBM E-score” value of the first is higher: 0.354 for the first, -0.0946 for the second.

First: TACGGTGA
Second: GCCAGGGC
The “PBM E-score” value of the first is higher: 0.327 for the first, -0.132 for the second.

Compared with CTCTGCCC, AAGGACTA is lower in “PBM E-score” value: -0.211 for the first, -0.303 for the second.

Going from AGCGGGCC to CGCCCTCC, the “PBM E-score” value falls from -0.0852 to -0.179.

Compared with ACTTCTTC, TCAGAAAA is lower in “PBM E-score” value: 0.0168 for the first, -0.153 for the second.

Going from AAGGTCAC to CCTGCTGA, the “PBM E-score” value rises from -0.258 to -0.133.

Compared with CCCCTCTA, AACTACAG is higher in “PBM E-score” value: -0.101 for the first, -0.0598 for the second.

Going from GAGCAAGC to AGGGGGAA, the “PBM E-score” value falls from -0.0288 to -0.27.

Going from AATCTAGT to CGCTTGAC, the “PBM E-score” value falls from 0.0673 to -0.0303.

First: CGTATTAC
Second: GACCCTAA
The “PBM E-score” value of the first is higher: 0.325 for the first, -0.0466 for the second.

Going from GAGTTTAA to ATTCAGGG, the “PBM E-score” value falls from 0.128 to -0.252.

First: CGCATTGA
Second: CGGATGAC
The “PBM E-score” value of the first is lower: 0.0874 for the first, 0.13 for the second.

Compared with CTCTGAAC, AATTTCTG is higher in “PBM E-score” value: 0.124 for the first, 0.152 for the second.

Compared with GAGCATAA, AAATTTAA is higher in “PBM E-score” value: 0.0722 for the first, 0.184 for the second.

Going from ATACGTAG to GTTCTGCA, the “PBM E-score” value falls from 0.26 to 0.0392.

First: CCGTGCTA
Second: ACTCAGCC
The “PBM E-score” value of the first is higher: -0.196 for the first, -0.269 for the second.

First: TCTCGTAA
Second: GTATTCAC
The “PBM E-score” value of the first is higher: 0.434 for the first, 0.0672 for the second.

First: CCCAGTCG
Second: ATGCTACG
The “PBM E-score” value of the first is lower: 0.00621 for the first, 0.177 for the second.

Going from AAACGTAC to ACATGAAC, the “PBM E-score” value falls from 0.33 to 0.105.

Compared with ATCACAGG, TGCTCCAA is higher in “PBM E-score” value: -0.223 for the first, -0.146 for the second.

Compared with CCATAGGC, ACGAGCTG is higher in “PBM E-score” value: -0.129 for the first, 0.36 for the second.

First: CAAGCGCA
Second: CTTCTGAC
The “PBM E-score” value of the first is higher: 0.118 for the first, -0.203 for the second.

Going from CGCCTCTC to GAATGCTC, the “PBM E-score” value rises from -0.224 to -0.137.

Compared with CAGGCTGA, CCACCAAC is higher in “PBM E-score” value: -0.283 for the first, -0.112 for the second.

Compared with TAAAGACA, ACCGGCGT is higher in “PBM E-score” value: -0.156 for the first, 0.143 for the second.

Going from TCGCTACA to ATGAATGC, the “PBM E-score” value falls from -0.0174 to -0.0709.

Compared with CTCATAAC, ATGACAAT is higher in “PBM E-score” value: -0.125 for the first, 0.0715 for the second.

Going from CTTGAGAC to CATGACCG, the “PBM E-score” value rises from -0.196 to 0.0106.

Compared with CACGAATG, ACGCCTTC is lower in “PBM E-score” value: 0.0101 for the first, -0.0211 for the second.

Compared with AGACCTCT, ATAGGTAA is lower in “PBM E-score” value: 0.0513 for the first, 0.0176 for the second.

Going from ACTGCACT to CGCAAAAC, the “PBM E-score” value rises from -0.0735 to 0.169.

First: CTCACCGC
Second: GCACCCGC
The “PBM E-score” value of the first is lower: -0.19 for the first, 0.0103 for the second.

Compared with AGGGTGAT, CGAATCGC is higher in “PBM E-score” value: -0.0881 for the first, 0.132 for the second.
